The text below walks through data of PMC7994375.

B1: Human Melanocortin-4 Receptor (MC4R) WT, NanoBiT constructs (MC4R WT-LgBiT; MC4R WT-SmBiT) [human] / Human Melanocortin-4 Receptor (MC4R) WT, NanoBiT constructs (MC4R WT-LgBiT; MC4R WT-SmBiT) [human] (parent)
chain 1: MVNSTHRGMHTSLHLWNRSSYRLHSNASESLGKGYSDGGCYEQLFVSPEVFVTLGVISLLENILVIVAIAKNKNLHSPMYFFICSLAVADMLVSVSNGSETIVITLLNSTDTDAQSFTVNIDNVIDSVICSSLLASICSLLSIAVDRYFTIFYALQYHNIMTVKRVGIIISCIWAACTVSGILFIIYSDSSAVIICLITMFFTMLALMASLYVHMFLMARLHIKRIAVLPGTGAIRQGANMKGAITLTILIGVFVVCWAPFFLHLIFYISCPQNPYCVCFMSHFNLYLILIMCNSIIDPLIYALRSQELRKTFKEIICCYPLGGLCDLSSRY
chain 2: B1 chain 1
B2: Human Melanocortin-4 Receptor (MC4R) WT, NanoBiT constructs (MC4R WT-LgBiT; MC4R WT-SmBiT) [human] / Human N-SmBiT-β-arrestin-1 [human] (parent)
chain 1: B1 chain 1
chain 2: MGDKGTRVFKKASPNGKLTVYLGKRDFVDHIDLVDPVDGVVLVDPEYLKERRVYVTLTCAFRYGREDLDVLGLTFRKDLFVANVQSFPPAPEDKKPLTRLQERLIKKLGEHAYPFTFEIPPNLPCSVTLQPGPEDTGKACGVDYEVKAFCAENLEEKIHKRNSVRLVIRKVQYAPERPGPQPTAETTRQFLMSDKPLHLEASLDKEIYYHGEPISVNVHVTNNTNKTVKKIKISVRQYADICLFNTAQYKCPVAMEEADDTVAPSSTFCKVYTLTPFLANNREKRGLALDGKLKHEDTNLASSTLLREGANREILGIIVSYKVKVKLVVSRGGLLGDLASSDVAVELPFTLMHPKPKEEPPHREVPENETPVDTNLIELDTNDDDIVFEDFARQRLKGMKDDKEEEEDGTGSPQLNNR
B3: Human Melanocortin-4 Receptor (MC4R) WT, NanoBiT constructs (MC4R WT-LgBiT; MC4R WT-SmBiT) [human] / Human Gαs-C-SmBiT [human] (parent)
chain 1: B1 chain 1
chain 2: MGCLGNSKTEDQRNEEKAQREANKKIEKQLQKDKQVYRATHRLLLLGAGESGKSTIVKQMRILHVNGFNGEGGEEDPQAARSNSDGEKATKVQDIKNNLKEAIETIVAAMSNLVPPVELANPENQFRVDYILSVMNVPDFDFPPEFYEHAKALWEDEGVRACYERSNEYQLIDCAQYFLDKIDVIKQADYVPSDQDLLRCRVLTSGIFETKFQVDKVNFHMFDVGGQRDERRKWIQCFNDVTAIIFVVASSSYNMVIREDNQTNRLQEALNLFKSIWNNRWLRTISVILFLNKQDLLAEKVLAGKSKIEDYFPEFARYTTPEDATPEPGEDPRVTRAKYFIRDEFLRISTASGDGRHYCYPHFTCAVDTENIRRVFNDCRDIIQRMHLRQYELL

One assay covers variants of B1. The experiment in a line: NanoBiT protein:protein interaction assay. As to conditions: with Human Melanocortin-4 Receptor (MC4R) WT, read off a plot.
Consider chain 1 V103I, for which the screen value (loge(mutant/WT)) worked out at 0.05.

On to chain 1 T53I, for which the screen value (loge(mutant/WT)) is -0.6.

For chain 1 S191T, the screen value (loge(mutant/WT)) was -0.55.

Take chain 1 R236C: the screen value (loge(mutant/WT)) is -1.3.

As to chain 1 T232S, the screen value (loge(mutant/WT)) was -0.75.

As to chain 1 S295P, the screen value (loge(mutant/WT)) is -0.85.

chain 1 I186V: the screen value (loge(mutant/WT)) was -0.5.

Take chain 1 S19G: the screen value (loge(mutant/WT)) is -0.55.

Regarding chain 1 T11A, the screen value (loge(mutant/WT)) is -0.3.

In the case of chain 1 N240S, the screen value (loge(mutant/WT)) is 0.15.

Take chain 1 M200V: the screen value (loge(mutant/WT)) is -1.4.

For the variant chain 1 L325F, the screen value (loge(mutant/WT)) was -0.8.

In the case of chain 1 S30F, the screen value (loge(mutant/WT)) was -0.5.

With chain 1 G238D, the screen value (loge(mutant/WT)) was -0.1.

Turning to chain 1 T112M, the screen value (loge(mutant/WT)) is -1.4.

As to chain 1 C326R, the screen value (loge(mutant/WT)) is -0.8.

Turning to chain 1 L304F, the screen value (loge(mutant/WT)) came out at 0.2.

chain 1 G231S: the screen value (loge(mutant/WT)) was determined as 0.

As for chain 1 G34A, the screen value (loge(mutant/WT)) was -0.7.

Consider chain 1 I289L, for which the screen value (loge(mutant/WT)) was -0.15.

As to chain 1 R305S, the screen value (loge(mutant/WT)) was -0.65.

On to chain 1 I251L, for which the screen value (loge(mutant/WT)) was -0.4.

The variants in a further assay derive from B2. The experiment in a line: NanoBiT protein:protein interaction assay. As to conditions: with Human N-SmBiT-β-arrestin-1 [human]; read off a plot.
On to chain 1 I289L, for which the screen value (loge(mutant/WT)) was found to be 0.4.

Turning to chain 1 L304F, the screen value (loge(mutant/WT)) came out at 0.25.

With chain 1 S30F, the screen value (loge(mutant/WT)) is 0.25.

For the variant chain 1 S191T, the screen value (loge(mutant/WT)) was determined as 0.5.

chain 1 T11A: the screen value (loge(mutant/WT)) was found to be 0.7.

In the case of chain 1 T112M, the screen value (loge(mutant/WT)) is -0.25.

For chain 1 V103I, the screen value (loge(mutant/WT)) was determined as 1.5.

chain 1 G238D: the screen value (loge(mutant/WT)) was 0.3.

Take chain 1 M200V: the screen value (loge(mutant/WT)) is -0.8.

Consider chain 1 T53I, for which the screen value (loge(mutant/WT)) was found to be 0.35.

Turning to chain 1 L325F, the screen value (loge(mutant/WT)) was -0.9.

On to chain 1 G34A, for which the screen value (loge(mutant/WT)) was -0.1.

With chain 1 T232S, the screen value (loge(mutant/WT)) was -0.45.

With chain 1 R305S, the screen value (loge(mutant/WT)) is -0.1.

Consider chain 1 N240S, for which the screen value (loge(mutant/WT)) worked out at 0.6.

Take chain 1 S295P: the screen value (loge(mutant/WT)) was -1.1.

For chain 1 R236C, the screen value (loge(mutant/WT)) is -0.7.

In the case of chain 1 G231S, the screen value (loge(mutant/WT)) is -0.45.

As for chain 1 C326R, the screen value (loge(mutant/WT)) was -0.8.

As to chain 1 I186V, the screen value (loge(mutant/WT)) was -0.1.

Regarding chain 1 I251L, the screen value (loge(mutant/WT)) was 0.45.

Take chain 1 S19G: the screen value (loge(mutant/WT)) was 0.05.

The variants in another assay derive from B3. Put plainly: NanoBiT enzyme complementation assay. The conditions noted are these: with Human Gαs-C-SmBiT [human]; read off a plot.
For the variant chain 1 I289L, the screen value (loge(mutant/WT)) is -0.05.

Take chain 1 I186V: the screen value (loge(mutant/WT)) was -0.4.

As to chain 1 S19G, the screen value (loge(mutant/WT)) worked out at 0.9.
